From PMC4336329 (PLoS ONE, 2015)
About 14,000 (4.5%) of roughly 310,000 compounds showed an effect of 50% or more. The effect is printed as a negative number. The list shows a part of the results.

target: human ether-à-go-go-related gene (hERG) potassium channel (human, UniProt Q12809); assay: primary screen, population patch clamp on CHO cells stably expressing hERG
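Also: peak tail current of the secondary pulse compared with the same well before compound.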

human ether-à-go-go-related gene (hERG) potassium channel, sequence (Q12809 whole entry, looked up): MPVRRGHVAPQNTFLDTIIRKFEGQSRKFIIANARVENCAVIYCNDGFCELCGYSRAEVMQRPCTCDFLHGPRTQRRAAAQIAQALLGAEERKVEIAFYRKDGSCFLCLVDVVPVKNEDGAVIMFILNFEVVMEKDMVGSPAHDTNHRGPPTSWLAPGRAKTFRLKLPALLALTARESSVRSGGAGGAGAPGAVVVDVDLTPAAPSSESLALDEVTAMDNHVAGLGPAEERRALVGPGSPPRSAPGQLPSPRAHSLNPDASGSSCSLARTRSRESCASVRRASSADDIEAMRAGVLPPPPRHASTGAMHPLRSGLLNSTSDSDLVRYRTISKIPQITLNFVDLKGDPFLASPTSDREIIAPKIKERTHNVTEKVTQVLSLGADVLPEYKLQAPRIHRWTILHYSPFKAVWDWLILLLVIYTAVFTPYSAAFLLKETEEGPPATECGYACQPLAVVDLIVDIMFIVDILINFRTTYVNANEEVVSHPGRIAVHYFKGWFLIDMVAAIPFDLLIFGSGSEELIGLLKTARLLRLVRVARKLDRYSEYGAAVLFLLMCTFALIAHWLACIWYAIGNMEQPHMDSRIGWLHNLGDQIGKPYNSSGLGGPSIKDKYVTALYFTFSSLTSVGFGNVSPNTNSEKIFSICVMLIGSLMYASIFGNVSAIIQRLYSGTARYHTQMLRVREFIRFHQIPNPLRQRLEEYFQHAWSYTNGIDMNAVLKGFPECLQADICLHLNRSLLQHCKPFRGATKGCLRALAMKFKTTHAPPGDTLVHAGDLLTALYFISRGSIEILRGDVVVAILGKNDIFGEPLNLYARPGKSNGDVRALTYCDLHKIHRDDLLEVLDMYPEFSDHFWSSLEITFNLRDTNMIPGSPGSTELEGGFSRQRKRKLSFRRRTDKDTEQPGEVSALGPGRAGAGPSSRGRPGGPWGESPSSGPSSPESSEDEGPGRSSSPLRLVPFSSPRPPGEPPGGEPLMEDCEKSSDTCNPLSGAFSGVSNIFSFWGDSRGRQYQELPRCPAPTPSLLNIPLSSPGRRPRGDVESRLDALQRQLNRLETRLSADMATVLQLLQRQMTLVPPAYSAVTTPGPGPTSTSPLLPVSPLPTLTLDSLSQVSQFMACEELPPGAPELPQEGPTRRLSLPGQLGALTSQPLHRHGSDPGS

Point of comparison: `COC(=O)CSc1nc2ccc(NC(=O)CSc3nnnn3Cc3ccccc3)cc2s1`, “hERG current change (%, negative = inhibition) at 10uM” value 10.8%. Against it:
- OC(CN1CCOCC1)Cn1cnc2ccccc21 (centres unmarked) — lower, 5.65%
- COc1ccc(-c2csc3ncnc(N4CCN(c5ccccc5OC)CC4)c23)cc1 — lower, 4.75%
- CCN1CCN(c2ccc(S(=O)(=O)N3CCCCC3)cc2NC(=O)Cc2ccc(Cl)c(Cl)c2)CC1 — lower, -48.5%
- CC(=O)Nc1cccc(-c2nc3ccccc3o2)c1 — higher, 26.7%
- Clc1ccc(C2=NNC(=NCc3ccccc3)SC2)cc1 — lower, -11.7%
- Cc1c(NC(=O)C2(c3ccc(Cl)cc3)CCCC2)c(=O)n(-c2ccccc2)n1C — lower, -20.4%
- Cc1ccc(NC(=O)C(=O)NCc2ccncc2)cc1 — higher, 15.3%
- Cc1[nH]c2ccc(F)cc2c1CCN(Cc1ccncc1)C(=S)Nc1ccccc1 — lower, -34.8%
- CC(C)Cc1csc(NC(=O)c2ccc(Cl)cc2)c1C(=O)O — higher, 54.9%
- COc1ccc(NC(=O)N2CCN(c3cccc(C(F)(F)F)c3)CC2)cc1OC — lower, -1.73%
- Cn1c(N)c(C(=O)COC(=O)c2cccs2)c(=O)n(C)c1=O — lower, -1.73%
- O=C(CCCSc1ccc(Cl)cc1)Nc1cc(S(=O)(=O)N2CCOCC2)ccc1O — lower, 10.3%
- O=C(NC1CCCC1)c1sc(=S)n2c1[nH]c(=O)c1ccccc12 — lower, 10.6%
- COc1ccc(N2CCN(CCC3Oc4cc([N+](=O)[O-])ccc4NC3=O)CC2)cc1 (centres unmarked) — lower, -19.1%
- CC1(c2cccc(Br)c2)NC(=O)N(CC(=O)N2CCN(C(=O)c3ccco3)CC2)C1=O (centres unmarked) — lower, -8.78%
- COCCCNC(=O)C12CCC(C)(C(=O)C1)C2(C)C (centres unmarked) — lower, -10.9%
- COc1ccccc1N(CC(=O)NCCSC(C)(C)C)S(C)(=O)=O — lower, 4.64%
- O=C(Nc1nccs1)C1CC(=O)N(c2ccccc2Cl)C1 (centres unmarked) — lower, 8.77%
- CC(=O)Cc1ccccc1OCC(=O)O — higher, 24%
- NC(=O)c1c(NC(=O)c2ccccc2C(=O)O)sc2c1CCCC2 — lower, 3.51%
- CCOc1ccccc1-c1cc(C(=O)N2CCOCC2)c2ccccc2n1 — lower, -7.06%
- O=C1NN(c2ccc(Cl)c(Cl)c2)C(=O)/C1=C/c1ccc(-c2ccccc2C(=O)O)o1 — higher, 16%
- Cc1nnc(SCC(=O)Nc2ccc(C(N)=O)cc2)n1-c1ccccc1 — higher, 14%
- CCOc1ccc(NC(=O)CN(C)C(=O)c2ccccc2Cc2ccccc2)cc1OCC — lower, -14%
- Cn1ccc(C(=O)Nc2ccc(Br)cc2Br)n1 — lower, -1.49%
- O=C(N=c1ccn(-c2nc3ccccc3nc2NS(=O)(=O)c2ccc(Cl)cc2)cc1)c1cccs1 — higher, 26.2%
- CCN(CC(=O)Nc1ccccc1OC)C(=O)COc1ccc2ccccc2c1 — lower, -2.9%
- O=C(NNc1cc(N2CCCC2)nc(N2CCCC2)n1)c1ccc([N+](=O)[O-])cc1 — lower, -47%
- CCN=c1scc(-c2cccs2)n1/N=C/c1cc(OC)ccc1O — lower, 0.136%
- Cc1ccc(S(=O)(=O)N2CCN(C3CC(=O)N(Cc4ccccc4)C3=O)CC2)cc1C (centres unmarked) — lower, -22.3%
- Cc1ccc(C(=O)CC2(O)C(=O)N(Cc3ccccc3Cl)c3ccccc32)o1 (centres unmarked) — lower, -7.92%
- COc1ccc(CCCCCCOCc2ccccc2)cc1 — higher, 11%
- Cc1ccc(C(=O)COC(=O)c2cn3ccccc3n2)cc1 — higher, 29.6%
- CCN(CC)S(=O)(=O)c1ccc(C(=O)N(c2ccc(C)cc2)C2C=CS(=O)(=O)C2)cc1 (centres unmarked) — lower, -8.66%
- COc1ccc(CCNC(=O)Cn2nnc(C(=O)Nc3cc(C)ccc3C)c2N)cc1OC — higher, 10.9%
- O=C(NCc1cccnc1)C(=O)Nc1ccc2c(c1)OCO2 — higher, 16.2%
- O=C1C2C3C=CC(C3)C2C(=O)N1c1ccc2c(c1)CCC2 (centres unmarked) — lower, -7.03%
- COc1ccc(C(=O)Cn2c(Br)nc3c2c(=O)n(C)c(=O)n3C)cc1OC — lower, 9.27%
- COc1cccc(-c2nn(C)c3sc(C(=O)N4CCN(c5ccccc5)CC4)cc23)c1 — higher, 16.2%
- O=C(OCCCN=C1NS(=O)(=O)c2ccccc21)C1CC(=O)N(c2ccc(Cl)cc2)C1 (centres unmarked) — lower, -58.7%
- O=C(COC(=O)CNC(=O)c1ccccc1Cl)Nc1ncc(C(F)(F)F)cc1Cl — lower, -1.76%
- O=C(Nc1ccc(S(=O)(=O)N2CCCCC2)cc1)C1CC(=O)N(Cc2ccccc2)C1 (centres unmarked) — lower, 8.94%
- CCOc1ccc2oc(C(=O)NC(C)(C)CC)c(C)c2c1 — lower, -3%
- Cc1cc(C(=O)Nc2cccnc2)no1 — lower, 7.68%
- CC(C)(C)NC(=O)Cn1nnc(-c2ccc(Cl)cc2)n1 — lower, 2.32%
- Cc1nn(C)c(C)c1S(=O)(=O)N(CC(=O)NCCCN1CC(C)CC(C)C1)c1ccc(C(C)C)cc1 (centres unmarked) — lower, -66.4%
- CC(=O)Nc1ccc(NC(=O)CSc2ncc(C(=O)Nc3ccc(F)cc3)c(=O)n2C)cc1 — lower, -23.7%
- CCOC(=O)N1CCN(C(=O)CSc2ncccn2)CC1 — lower, 5.56%
- CCCNC(=O)c1c(N)n(CC2CCCO2)c2nc3ccccc3nc12 (centres unmarked) — lower, -2.42%
- COC(=O)Nc1ccc(S(=O)(=O)N2CCC(C(=O)N3CCC(C)CC3)CC2)cc1 — lower, 9.21%
- O=C(CF)NC(Nc1cccc2cccnc12)C(Cl)(Cl)Cl (centres unmarked) — lower, -5.95%
- O=C(Nc1cccc(-c2nc3cc(Cl)ccc3o2)c1)C1CCCO1 (centres unmarked) — lower, -20.7%
- O=C(Nc1ccccc1N1CCCC1)c1ccc(F)c(S(=O)(=O)N2CCOCC2)c1 — lower, -22.5%
- Oc1ccc(Oc2ccc3c(C(F)(F)F)cc(C(F)(F)F)nc3n2)cc1 — lower, 6.5%
- CC1CCCN(CCSc2ccc(Cl)cc2)C1.O=C(O)C(=O)O (centres unmarked) — lower, -41.3%
- CC1OC(C)(C)OC1C1CNc2nc(NC(=O)C(C)(C)C)[nH]c(=O)c2N1C(=O)c1cccnc1 (centres unmarked) — lower, 8.96%
- O=C1c2cccc3c([N+](=O)[O-])ccc(c23)C(=O)N1CCc1ccccn1 — lower, 1.72%
- Cc1ccc(N2C(=O)CC(Sc3ncn[nH]3)C2=O)cc1C (centres unmarked) — higher, 14.2%
- Cc1cc(=O)oc2cc(OCC(=O)c3ccc4c(c3)NC(=O)CO4)ccc12 — higher, 17.2%
- CCCCOc1ccc(-c2nnc(N)s2)cc1 — lower, 2.84%
- CCCCCn1c(N2CCC(Cc3ccccc3)CC2)nc2c1c(=O)[nH]c(=O)n2C — lower, -11%
- CCOCCCNC(=O)C(c1ccccc1)N(Cc1cccs1)C(=O)CNC(=O)c1ccccc1 (centres unmarked) — lower, -7.15%
- CC(=O)Nc1c(O)nc(SC/C=C/CSc2nc(O)c(NC(C)=O)c(=O)[nH]2)[nH]c1=O — higher, 17%
- Cc1ccc(NC(=O)C2CC(=O)n3c(nc4ccccc43)N2)cc1C (centres unmarked) — lower, 2.55%
- CSc1nc2ccccc2c(=O)n1C1CCCCC1 — higher, 12.2%
- CCOc1ccc(C(=O)C2CCN(C(=O)c3ccc([N+](=O)[O-])cc3)CC2)cc1 — lower, -79.9%
- CCOc1ccc(NC(=O)COC(=O)c2cc([N+](=O)[O-])ccc2N2CCOCC2)cc1 — lower, -43.8%
- c1ccc2c(CCNC3=NCCC3)c[nH]c2c1 — higher, 11.7%
- COc1ccc(C2(CNC(=O)Cc3ccc(OC)c(OC)c3)CCCC2)cc1 — lower, -16.8%
- O=C(N/N=C\c1ccc2c(c1)OCO2)c1cncc(Br)c1 — lower, 10.2%
- O=C(COc1ccccc1[N+](=O)[O-])Nc1ccc2oc(=O)ccc2c1 — higher, 22.1%
- O=C(Nc1nnc(-c2ccc3c(c2)CCCC3)o1)c1ccc(Cl)cc1Cl — lower, -2.79%
- O=C(O)CCn1nnc(-c2cccs2)n1 — lower, 7.58%
- Nc1nc(NCc2ccco2)nc(N2CCN(Cc3ccccc3)CC2)c1[N+](=O)[O-] — lower, -41.9%
- CN(CC(=O)Nc1ccccc1C(F)(F)F)C(=O)COc1ncnc2sccc12 — lower, -3.3%
- O=C(NCC1COc2ccccc2O1)Nc1ccccc1F (centres unmarked) — lower, -4.46%
- Cc1csc(N/N=C/c2ccccc2F)n1 — higher, 22.7%
- NC(=O)CSc1nnc(-c2ccccn2)n1Cc1ccco1 — lower, 4.36%
- CC(C)CCNC(=O)Cn1c(=O)oc2cc(S(=O)(=O)N3CCc4ccccc43)ccc21 — lower, 1.35%
- CC(C)(C)NC(=O)CSc1nsc(SCC(=O)NC(C)(C)C)c1C#N — lower, -5.05%
- CSCCC(N=C(NS(=O)(=O)c1ccc(Br)cc1)c1ccccc1)C(=O)O (centres unmarked) — higher, 17.3%
- CSc1ccc(CN(C)CC(=O)Nc2ccc(C)cc2Br)cc1 — lower, -11.7%
- CC(C)NC(=O)C1CCCN(S(=O)(=O)c2cccc3nonc23)C1 (centres unmarked) — lower, -1.94%
- O=C(CN1CCN(c2ccc(O)cc2)CC1)Nc1cc(S(=O)(=O)N2CCOCC2)ccc1Cl — lower, -11.7%
- Cc1ccc(O)c(NC(=O)C2CC(c3ccc(F)cc3)=NO2)c1 (centres unmarked) — lower, -3.98%
